# Test results as given in publication PMC4336329 (PLoS ONE, 2015).
# Out of some 310,000 compounds screened, about 2,200 (0.71%) showed an effect of 50% or more. Effects have a minus sign here. The list shows a part of the results.
# Target: human ether-à-go-go-related gene (hERG) potassium channel (human, UniProt Q12809)
# Assay: primary screen, population patch clamp on CHO cells stably expressing hERG
# Chain of human ether-à-go-go-related gene (hERG) potassium channel (Q12809 whole entry, looked up): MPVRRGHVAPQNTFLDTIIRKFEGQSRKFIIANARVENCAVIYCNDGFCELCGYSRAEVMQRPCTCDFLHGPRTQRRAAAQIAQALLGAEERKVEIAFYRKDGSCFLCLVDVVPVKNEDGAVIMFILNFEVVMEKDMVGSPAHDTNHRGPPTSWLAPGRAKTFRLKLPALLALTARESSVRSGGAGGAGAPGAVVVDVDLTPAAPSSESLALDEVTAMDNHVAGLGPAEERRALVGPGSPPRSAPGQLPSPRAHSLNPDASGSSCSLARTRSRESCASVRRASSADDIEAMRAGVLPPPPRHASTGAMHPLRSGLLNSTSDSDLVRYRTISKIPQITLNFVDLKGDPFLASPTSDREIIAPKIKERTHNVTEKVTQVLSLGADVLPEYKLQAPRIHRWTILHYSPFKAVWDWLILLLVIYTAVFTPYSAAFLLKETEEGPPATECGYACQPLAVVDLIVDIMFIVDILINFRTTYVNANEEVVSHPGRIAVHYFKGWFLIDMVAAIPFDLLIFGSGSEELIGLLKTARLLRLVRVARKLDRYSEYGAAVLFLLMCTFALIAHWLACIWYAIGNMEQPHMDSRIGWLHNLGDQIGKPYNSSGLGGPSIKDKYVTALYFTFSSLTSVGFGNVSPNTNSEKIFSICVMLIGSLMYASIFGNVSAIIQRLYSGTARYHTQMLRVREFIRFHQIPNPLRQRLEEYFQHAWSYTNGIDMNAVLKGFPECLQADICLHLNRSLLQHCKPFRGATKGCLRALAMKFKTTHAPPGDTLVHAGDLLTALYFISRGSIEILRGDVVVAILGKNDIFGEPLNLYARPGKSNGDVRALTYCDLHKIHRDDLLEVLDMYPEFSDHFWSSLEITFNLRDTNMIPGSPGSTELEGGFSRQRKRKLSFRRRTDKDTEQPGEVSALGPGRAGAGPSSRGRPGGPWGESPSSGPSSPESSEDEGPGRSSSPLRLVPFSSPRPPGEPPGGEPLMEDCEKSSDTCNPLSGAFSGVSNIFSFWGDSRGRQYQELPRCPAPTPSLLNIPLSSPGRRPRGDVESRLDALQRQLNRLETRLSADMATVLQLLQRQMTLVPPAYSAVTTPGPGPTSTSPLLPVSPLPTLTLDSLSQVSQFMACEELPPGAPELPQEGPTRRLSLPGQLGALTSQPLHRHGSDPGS
row,Compound,"hERG current change (%, negative = inhibition) at 1uM"
1,CN(C)/C=C/C(=O)Oc1ccc(Cl)cc1Cl,5.3%
2,O=C(NCc1ccc2c(c1)OCO2)C1CCCN1C(=O)Nc1ccc(Cl)cc1 (stereo not drawn),0.573%
3,C=CCOC(=O)C1=C(C)N=C2SCCC(=O)N2C1c1ccc(OC(=O)c2ccco2)cc1 (stereo not drawn),-6.27%
4,Cc1nc(-c2cn[nH]c2)c2cc(C)oc2n1,14.9%
5,COc1ccc(/C=C2/C(=O)N(c3ccccc3)N=C2C)cc1Br,15.4%
6,COC(=O)c1cn(NC(=O)COc2ccc(Cl)cc2)c(=O)c2ccccc12,8.5%
7,Cc1cccc(C)c1N1CCN(C(=O)N2CCCCC2)CC1,11.3%
8,COC(=O)c1cccc(NC(=O)CSc2nnc(COc3cccc(C)c3)n2C)c1,5.05%
9,Cn1c(=O)[nH]c2ccc([N+](=O)[O-])nc21,15.9%
10,CCN1CC2C3CCC(C)(O3)C2C1 (stereo not drawn),-37%
11,CCOC(=O)c1c(C)[nH]c(C)c1C(=O)CSc1nc2ccccc2c(=O)n1-c1ccc(C)cc1,2.57%
12,S=C1NC2(CCCCC2)Cc2ccccc21,11.6%
13,NS(=O)(=O)c1ccc(Nc2nc3ccccc3nc2NS(=O)(=O)c2cccc([N+](=O)[O-])c2)cc1,5.32%
14,CC(=O)c1cc2c(cc1N(C(=O)Cn1nnc3ccccc31)C(C(=O)NCCC(C)C)c1cccnc1)OCO2 (stereo not drawn),6.08%
15,COc1ccc(N/C=C/C(=O)c2ccc(OC)c(OC)c2)cc1,5.01%
16,CCCC(=Nc1ccccc1OC)C1=C(O)CC(c2ccccc2)CC1=O (stereo not drawn),9.36%
17,C=CCN(CC(=O)NCc1ccc(F)cc1)C(=O)c1csnn1,-7.8%
18,Clc1ccc(CNc2ncccn2)cc1,9.82%
19,Cc1ccc(C(=O)Nc2ccc3[nH]c(=O)[nH]c3c2)c(C)c1,12.5%
20,CN(C(=O)CSc1ncnc2scc(-c3ccccc3)c12)C1CCS(=O)(=O)C1 (stereo not drawn),8.1%
21,O=C(NCc1ccncc1)Nc1ccccc1F,13.5%
22,CC(Nc1n[nH]c(=O)[nH]c1=O)C(=O)N/N=C/c1cccs1 (stereo not drawn),17.6%
23,Cc1cnc(NC(=O)c2cc3ccccc3o2)s1,15.1%

row,Compound,"hERG current change (%, negative = inhibition) at 1uM"
1,CCc1cccc(NC(=O)CSCc2nc3sc(C)c(C)c3c(=O)[nH]2)c1,22.7%
2,CCOC(=O)Cn1cc(C=O)c2ccccc21,5.97%
3,CCOC(=O)c1ccc(NC(=O)Oc2ccccc2)cc1,1.96%
4,CC(c1c(O)c2ccccc2[nH]c1=O)C1(C)CCC(O)C(C)(C)O1 (stereo not drawn),-0.766%
5,CCC(=O)N1CCc2cc(S(=O)(=O)CCC(=O)NCc3cccs3)ccc21,6.49%
6,Nc1ccc(C23CC4CC(CC(O)(C4)C2)C3)cc1,2.73%
7,O=C(CCN1C(=O)c2ccccc2C1=O)C1=NN[C@@H]2C(=O)N(c3cccc(F)c3)C(=O)[C@H]12,17.5%
8,Cc1ccc(NC(=O)c2cc(-c3cccc(O)c3)on2)cc1C,11.2%
9,O=C(CC1CCCCC1)NC1CCCC1,0.54%
10,CC(=O)NC12CC3CC(C1)CC(C(=O)N(C)CC(=O)Nc1ccc(F)c(F)c1F)(C3)C2,-1.16%
11,O=[N+]([O-])/C=C/c1cn(Cc2ccccc2)c2ccccc12,5.14%
12,Cc1ccc(N=CC2=C(O)CC(c3ccco3)CC2=O)cc1 (stereo not drawn),0.684%
13,Cc1ccc(-c2nc(SCC(=O)NCCN3C(=O)CSC3=O)[nH]c2-c2ccc(C)cc2)cc1,4.85%
14,COc1ccc(Br)cc1CN1CCSCC1,16.5%
15,CCn1ccnc1CN(C)Cc1nc(Cc2cccc(C(F)(F)F)c2)no1,-13%
16,CC1CCCCN1CC(=O)c1ccc2cc[nH]c2c1 (stereo not drawn),14.9%
17,CC(C)c1c(Cl)c(O)c(-c2ccccc2)c(=O)n1-c1ccc(F)cc1,16%
18,Cc1cc(NC(=O)c2ccc(COc3ccccc3Cl)o2)no1,11.6%
19,CCN1CCCC1CNC(=O)c1ccc(N2CCOCC2)c(NS(=O)(=O)c2ccc(OC)cc2)c1 (stereo not drawn),2.19%
20,CCOC(=O)C1=C2NC(=O)c3ccccc3N2C(=O)C1,-1.14%
21,O=C(NCc1ccc2c(c1)OCO2)C1CC(=O)N(c2ccc(O)cc2)C1 (stereo not drawn),5.85%
22,C/C(=C\c1ccccc1)CN1CCC(C(=O)N2CCCCC2)CC1.O=C(O)C(=O)O,-5.87%
